Data from PubChem BioAssay (NCI).
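1) Cells in 96-well plates. 2) Compound, 48 h, 5 concentrations. 3) Linear interpolation between surrounding doses. 4) Unreached endpoint = highest concentration. GI50: concentration for 50% inhibition of growth. TGI denotes the concentration required for complete inhibition of growth.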 Square brackets hold non-standard residues; d marks the D form. Peptide text beside a SMILES is read from it. * marks the point of attachment. Phe(4-NO2) = N[CH](Cc1ccc([N+](=O)[O-])cc1)C(=O)O; Cbz = O=C(OCc1ccccc1)*

system: NCI-H322M lung; test: DTP human tumour cell line panel, 48 h

Row | Compound | TGI [µM] | GI50 [µM]
1 | Nc1ccc(C(=O)NN2C(=O)C(Cl)C2c2ccc(O)cc2)cc1 (stereo unspecified) | 34.8 | –
2 | CCCOC(=O)C1C(c2ccc(OC)cc2)NC(c2ccc(OC)cc2)C(C(=O)OCCC)S1(=O)=O (stereo unspecified) | > 100 | > 100
3 | COc1ccc2[nH]c(=O)cc(C)c2c1[N+](=O)[O-] | > 100 | –
4 | Cc1nc2sc(C(=O)Nc3cccc4c3OCCO4)c(N)c2cc1C(C)O (stereo unspecified) | > 100 | 8.82
5 | CC(=O)OC1C(C)OC(Oc2c(-c3ccc(O)cc3)oc3cc(O)cc(O)c3c2=O)C(O)C1OC(C)=O (stereo unspecified) | 99.8 | 30.2
6 | O=C(CC(=O)n1nc(-c2ccccc2)c(N=Nc2ccc([N+](=O)[O-])cc2)c1-c1ccccc1)Nc1ccc(Cl)cc1 | > 100 | –
7 | CCn1cnc(C[C@H](NC(=O)[C@@H](NC(=O)Nc2cc(C(F)(F)F)cc(C(F)(F)F)c2)C(C)(C)C)C(=O)OC)c1 | > 10 | > 10
8 | CCN(CC)CCNc1ccc2nc(C)n3c4ccc(OC)cc4c(=O)c1c23 | 16.9 | –
9 | O=C1Sc2sc(=S)sc2SC1c1ccccc1 (stereo unspecified) | > 100 | –
10 | COc1ccc(-c2c(C#N)c(N)nc(Sc3ccccc3N)c2C#N)cc1 | > 100 | –
11 | COc1ccc(-n2c(C)nc3ccc(NC4OCC(OC(C)=O)C(OC(C)=O)C4OC(C)=O)cc3c2=O)cc1 (stereo unspecified) | > 100 | –
12 | COc1cc2c(c(OC)c1OC)[C@@H]1CCCCC[C@@H]1CCC2=O | > 100 | –
13 | C=CCN=C1NC(=O)C(CC(=O)Nc2ccc([N+](=O)[O-])cc2[N+](=O)[O-])S1 (stereo unspecified) | > 100 | –
14 | COc1ccc(C(=O)c2[nH]c(Nc3cc(C)ccn3)c(C(=S)Nc3ccccc3)c2N)cc1 | 38.5 | –
15 | CCCCCCCCCCCC(=O)OCC(O)CO (stereo unspecified) | > 100 | –
16 | COC(=O)C1=CCC[C@H]2[C@@]1(COC(C)=O)CC[C@@H](C)[C@]2(C)CC(=O)c1ccoc1 | > 50 | –
17 | C1=C(c2ccccc2)NC2=N[C@H]3CCCC[C@@H]3N2C1c1ccccc1 (stereo partly specified) | 24.3 | –

Row | Compound | TGI [µM] | GI50 [µM]
18 | Nc1nc2cc(COc3ccc(C(=O)O)cc3)ccc2nc1-c1ccccc1 | > 10 | –
19 | Cc1ccc(C(=O)c2[nH]c(NCc3ccccc3)c(C(=S)Nc3ccccc3)c2N)cc1 | 11.4 | –
20 | Cc1ccc(-c2csc3ncnc(Nc4cccc(O)c4)c23)cc1 | 43.3 | 19.2
21 | COc1ccc(/C(=N/O)c2cc(F)c(F)c(OC)c2F)cc1O | > 100 | 1.74
22 | CCc1n[nH]c(=O)n1N | > 100 | –
23 | CN1CC[C@@]2(c3cccc(O)c3)CC(=O)/C(=C/c3ccc(Cl)c(Cl)c3)[C@H]1C2 | 14.6 | –
24 | CC1Nc2ccccc2NC1C=C(C#N)C#N (stereo unspecified) | 30.8 | –
25 | NNC(=O)C(=O)N/N=C1\CCCC1C(=O)CCC(=O)Nc1cccc(Cl)c1 (stereo unspecified) | > 100 | –
26 | COc1ccccc1OC/C(N=Cc1cccnc1)=N/NC(=O)c1ccncc1 | > 100 | –
27 | CCCCCCCCC#CCCCCCCC(F)C(=O)O (stereo unspecified) | > 100 | –
28 | COc1cc(CNc2ccc(C)cc2)cc(OC)c1OC | > 100 | –
29 | O=C1NCC2(CCN(CC3COc4ccccc4O3)CC2)N1c1ccccc1 (stereo unspecified) | > 100 | –
30 | CCOC(=O)CCC(NC(=O)OCc1ccccc1)C(=O)NC(CCC(=O)OCC)C(=O)NC(CCC(=O)OCC)C(=O)NC(CCC(=O)OCC)C(=O)NC(CCC(=O)OCC)C(=O)NC(Cc1ccc([N+](=O)[O-])cc1)C(=O)NC(CCC(=O)OCC)C(=O)NC(CCC(=O)OCC)C(=O)NC(CCC(=O)OCC)C(=O)NC(CCC(=O)OCC)C(=O)NC(CCC(=O)OCC)C(=O)OCC (stereo unspecified) (Cbz-E(OEt)E(OEt)E(OEt)E(OEt)E(OEt)[Phe(4-NO2)]E(OEt)E(OEt)E(OEt)E(OEt)E(OEt)-OEt; configuration not given here) | > 50 | –
31 | COC(=O)c1cc2c3cc(Cl)ccc3[nH]c2c2ncccc12 | > 100 | > 100
32 | O=c1oc2cc(O)ccc2cc1-c1nc2ccccc2o1 | > 100 | –
33 | O=C(NC1C(=O)NC(CCc2ccccc2)NC1=O)OCc1ccccc1 (stereo unspecified) | > 100 | –
34 | CC(Oc1ccc(Cl)cc1Cl)C(=O)NN1C(=O)CC(=O)NC1=S (stereo unspecified) | > 100 | –
